± gives the standard deviation of the averaged measurements. Some of the results follow.
Tested on: PfAP2-LT AP2 domain (GST-tagged)
Assay: gcPBM binding intensity (ln(normalized median fluorescence intensity)); higher = stronger DNA binding
Outline: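 The binding buffer was 1× PBS containing 1% milk, 0.2 mg/ml BSA, 0.5% salmon testes DNA and 0.03% Triton X-100. In it, GST-tagged P. falciparum DNA-binding domains expressed in E. coli were applied for 1 h to an Agilent 4 × 180k array of primer-extended double-stranded 36-bp intergenic genomic probes plus negative controls. Binding intensity, read with Alexa488 anti-GST antibody and a 488 nm scan, is the highest Masliner-normalised natural-log median intensity across replicate spots of either probe orientation.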

Sequence | gcPBM binding intensity (ln)
ATATATATTAATAATGCATGTGATATAAATTAATAT [TGCATGCA_site930] | 8.87 ± 0.44
ATATGTATAAATATAAATATATATATATATATATAT [CACACA_negctrl_site705] | 9.37 ± 0.37
ATTTTATATATGTGTTGTACGGTGAACATTTTGATA [XGTACX_site6538] | 8.89 ± 0.47
ACGTTAATATCTACAAGTACCCACATTAACAGGAAA [XGTACX_site2616] | 8.8 ± 0.33
ATGATATGGATAAATACACACAATATAATAATGGGT [CACACA_site4905] | 9.27 ± 0.37
ATATCTTATATTATCACACACACACCCACAAAACAG [CACACA_site1464] | 9.92 ± 0.042
AAAAAAAACAGACACACACACATTCAATATAAAACA [CACACA_site41] | 9.86 ± 0.35
TATATAAACATCGGTAGTACACACATTCATGTATTT [XGTACX_site6443] | 9.12 ± 0.43
GGATCATTTTTAAAGGAACACACAAAAAAAATTATA [CACACA_site8381] | 8.71 ± 0.54
GTTCATAAAAATTTTTGTACCCATAAAATATTCCTC [XGTACX_site8611] | 8.57 ± 0.47
GTAGGTGTTTTTGGTTGTACATATAAATATATATAC [XGTACX_site3380] | 9.04 ± 0.23
TTTTTTTTTTTTAATTGTACTTATTAAAAAAAGCAA [XGTACX_site8713] | 7.94 ± 0.44
TTTCTTCTTCAATGTTGTACTTTTCTCTTTTCTTAA [XGTACX_site1017] | 8.76 ± 0.47
GATATATATGTTCACACACACATGGAAATATATATA [CACACA_site4371] | 9.38 ± 0.18
ATATCATAAAAAATGTGTACATATATGAACATATAA [XGTACX_site2239] | 8.82 ± 0.49
TTAAGATCCTAAAAAACACACAATTGCGAATAATAA [CACACA_site6005] | 8.84 ± 0.47
GGAAATTAACAGAACACAATGTAACAATTTCTAACA [CACACA_negctrl_site1250] | 8.85 ± 0.4
TATTTTCATTATACTACTTCGAAGATACCCTTTTTT [CACACA_negctrl_site256] | 8.78 ± 0.49
AGATAAATATATTGTAGTACAGGAGCATAAATATAT [XGTACX_site8267] | 8.98 ± 0.4
TATAAACATTAAAGGTGTACAATTTAATTTCAATTT [XGTACX_site2944] | 8.67 ± 0.4
GTTCTTCCTTGTAAATGTACAAATACAAAATGTTCC [XGTACX_site6738] | 8.71 ± 0.38
CATTATTCTTTTAATATACACACTTTGTCTTTTCGC [CACACA_site2762] | 9.07 ± 0.42
ATATTATTATATATAGTGCATATTATTATTTTTATT | 8.74 ± 0.38

Sequence | gcPBM binding intensity (ln)
TCTCATAGTAAACACACACACACACCCACATATATA [CACACA_site5034] | 9.97 ± 0.071
CCTCATACGAAATATAAACACACATACAATAAATAA [CACACA_site8620] | 8.97 ± 0.36
TATGCACTTTAGGGCAGTACGTCAACATTATCTTTA [XGTACX_site3382] | 8.69 ± 0.42
ATTTTTTTCATAGACACACACAATATATCTGTTTCC [CACACA_site3023] | 9.49 ± 0.51
ATAAATTTTTTTTTTTTTTTTTTTTTTTTTTTTTTT [CACACA_negctrl_site508] | 8.64 ± 0.2
TATATTTATTATAACACACACATATAAATATTATAG [CACACA_site6726] | 8.97 ± 0.4
TGTTAAAATTATTTGGTGCACTTGTTTTACCTTATT | 8.96 ± 0.49
TTTTTTTTTTTTCAATCACACATGTTTTAATTATTT [CACACA_site5532] | 8.69 ± 0.54
TGTACGTTTTATAACACACACACAAAAAAAAAAAAA [CACACA_site3875] | 9.14 ± 0.37
TCATTTCACAGACACACACACACAAGATATTTCCTT [CACACA_site7774] | 9.7 ± 0.25
TGTAATAATATTTATGTGCACATATATTAAACTATA [GTGCAC_site9584] | 8.73 ± 0.35
AAGATAAAATGATGCACACAAAAGGGTGTAATATAT [CACACA_site1706] | 9.35 ± 0.42
TCTTCTTTTTTTTTTTTGTATTATTATAAATATTAT [CACACA_negctrl_site1668] | 8.53 ± 0.6
GAAGTTTTCTTAAAGATGCACTTTTTAAAAATAAAA [GTGCAC_site9941] | 8.14 ± 0.44
TTTTTTTTTTTTAATGCACACAATATATAATATGTA [CACACA_site3694] | 8.78 ± 0.48
TTTTATATTTATTTTTGTACATAAATGATCTCAAAT [XGTACX_site7768] | 8.54 ± 0.48
TGTTTTTAAAAATATACACACACAGATATTATATAT [CACACA_site8162] | 9.09 ± 0.33
ATATATATATATTTATGTACGCATTTATAGACGTAG [XGTACX_site6031] | 8.8 ± 0.33
AAATATTATAATAATTGTACTATATATACAGTTATT [XGTACX_site1963] | 8.88 ± 0.39
TAAAATATGTCATGGGTGCTTCTTTTTATACCTATG [GTGCAC_site9888] | 8.87 ± 0.48
AAAAAAAAAAAATTATGTACATATTATATATAATGG [XGTACX_site2885] | 8.59 ± 0.42
TATGATAACCATAATTGTACAGAATGAAACGTAAAT [XGTACX_site1653] | 8.96 ± 0.32
ACTTAAATAATACATACACACATGTACTTACAGAAA [CACACA_site8458] | 8.98 ± 0.42

Sequence | gcPBM binding intensity (ln)
AGAAAAAAAAAAAAAAATAAAAAAATAAATAAATAA [GTGCAC_negctrl_site161] | 8.29 ± 0.59
AAAACGCAGTTTAATATACACACCAAAAAAAAAAAA [CACACA_site3036] | 8.84 ± 0.45
CACAAATATATACATACACACATATATACACATATA [CACACA_site8024] | 9.37 ± 0.29
TTTGAGATGTGGTGTACACAAAATTAGGTACACATC [CACACA_site5773] | 8.96 ± 0.42
TGTTTTAAACTAATTTGTACATAGTTATTTATATTT [XGTACX_site7196] | 8.69 ± 0.59
ATTATATAAGTACACAAACAAGTATGAGATTCAAAA [GTGCAC_negctrl_site119] | 8.88 ± 0.5
TATTAATTTCGGGAAGTGCATTATGTTTATAGAATA | 8.44 ± 0.37
CCATATATTTGGTATAGTACTTTTTATTTTATTTCA [XGTACX_site8933] | 8.77 ± 0.47
AATTGTTTTTTTTTCTTATTTTATGTTATACACACA [TGCATGCA_negctrl_site380] | 9.18 ± 0.41
AAAAAAAAAAAAAACACATGCAGAAGAAAAAAAATA [TGCATGCA_site545] | 8.85 ± 0.51
ATATATTTTTCTTTACGTACGAAGCAAAATAACATT [XGTACX_site8145] | 8.57 ± 0.33
AAATGAACATATATGTGTACTTATATTTTTCTAAAT [XGTACX_site3388] | 8.77 ± 0.37
AAAAAAAAAAAAAAAGTGCATATATAAATATTGTAT [GTGCAC_site9459] | 8.62 ± 0.52
TCATTAAATGTTTAGGTGCATACTTTAATTTTTAAT [GTGCAC_site9906] | 8.52 ± 0.44
TTTAAAAAATAATATTGTACTATTCTCCCAATTTCT [XGTACX_site7079] | 8.44 ± 0.57
AAAAAATTTCAAATAACACACACTAATATAAATATG [CACACA_site6783] | 9.04 ± 0.34
TAACTTTGGAGGAGCTGTACGATTATTTTGATCCTT [XGTACX_site2514] | 8.86 ± 0.39
ATATACTGTATGAAAGCACACATACTTATTACTAAC [CACACA_site9384] | 8.97 ± 0.31
ATGTGAAAATAAGACACACTCAAAAGGTTTATATTA [CACACA_site4595] | 9.01 ± 0.45
TTTTTATATAATTTAACACACATTTCATATAAAAAA [CACACA_site3103] | 8.29 ± 0.39
TGGGAAAAAATATATGCACACCCCCCAAAAAAAAAA [CACACA_site8696] | 10.48 ± 0.071
AATTCTTTATTATATGCACACGTACATATAATATAT [CACACA_site8621] | 9.07 ± 0.38
AAAAAATGTTATAAAAGTACATAATTTATCTACCAT [XGTACX_site3035] | 8.6 ± 0.42

Sequence | gcPBM binding intensity (ln)
ATAAATATAAAACACACACACATATTATATATATAT [CACACA_site3064] | 9.72 ± 0.3
AAAAAAAAAAAAAAGTGTACCTTCAAAATAATATTG [XGTACX_site2844] | 8.43 ± 0.48
CTATATATAACCCATGTGCACTTTTTATGTACAATA | 8.99 ± 0.42
CCTTTTTCTACTTTCTCACACATATTAAGAATTATA [CACACA_site5621] | 8.65 ± 0.4
TCTTTCCTTATTAAAACACACAAATACATTATTTAA [CACACA_site2147] | 8.45 ± 0.43
AAAAAATGAAAAAACTGTACGCAATTTTGTTTTTAT [XGTACX_site2299] | 8.76 ± 0.39
AAGTTTTTTTTTATCACACACAAAAAAAAAAATATA [CACACA_site1362] | 8.82 ± 0.52
GGAGACTTTGTACAAACACACACATGAACACAATAT [CACACA_site8376] | 9.58 ± 0.41
TAATTTAAAAATGAACATATATATGTATGTAAATAT [TGCATGCA_negctrl_site135] | 8.88 ± 0.33
TCTTCACCACGTGGAAGTACATAAAAAGATACACAA [XGTACX_site4747] | 8.89 ± 0.37
TTTTAATATATAGAGTAACAAATTTGTCTATTAATA [CACACA_negctrl_site1495] | 8.49 ± 0.47
ATGTATATATTTATGTGTACTTAAATTTTTTTTTGT [XGTACX_site8179] | 8.73 ± 0.4
CATCTTAAATAAGAACGTACATTTTTTTTGATGAGA [XGTACX_site3462] | 8.44 ± 0.33
AAGACAAAACAAAGAAGTACATATATATATATATAT [XGTACX_site4067] | 9.93 ± 0.11
AATAATATTAACACACGTACAAAAGCAAACAACCAA [XGTACX_site7410] | 9.42 ± 0.35
ATACATTCTAATACGTGTACATATATATATATATAT [XGTACX_site1881] | 9.39 ± 0.52
ATAAAACAAAAACACACACACATACACAAAAAAAAA [CACACA_site3848] | 10.1 ± 0.3
TTTATATTATTATATCTTATTAATTATTTATCATTT [TGCATGCA_negctrl_site73] | 8.56 ± 0.69
TGATGCAAAATATATACACACATATATATATATATA [CACACA_site3052] | 9.91 ± 0.33
CATATACATTGTATATGTACATATATATATATATAT [XGTACX_site3772] | 9.5 ± 0.071

From the supplement of paper PMC11417369
